{
  "source": "paper PMC7819943",
  "about": "“Rice protein-binding microarrays: a tool to detect cis-acting elements near promoter regions in rice”",
  "note": "Some of the results follow.",
  "data": [
    {"target": "T1, OsWOX13 (Oryza sativa, UniProt Q5QMM3 1-267)", "T1 sequence": "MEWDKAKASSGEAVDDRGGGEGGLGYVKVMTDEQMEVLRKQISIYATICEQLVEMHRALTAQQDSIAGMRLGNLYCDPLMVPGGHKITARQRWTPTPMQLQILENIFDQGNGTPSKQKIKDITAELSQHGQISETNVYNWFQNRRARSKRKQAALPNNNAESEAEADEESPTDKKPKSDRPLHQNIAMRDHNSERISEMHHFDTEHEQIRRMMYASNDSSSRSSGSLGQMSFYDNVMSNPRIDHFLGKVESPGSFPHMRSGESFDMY", "assay": "protein-binding microarray (RPBM); PBS, 2% BSA, 51.3 ng/ul salmon testes DNA, 50 uM zinc acetate, 200 nM TF, 25 C, 1 h; high values mean tight binding", "conditions": "protein: recombinant; tags: N-terminal polyhistidine and DsRed monomer fusion (pET32a); label: CyDye5-dUTP incorporated in the synthesized complementary strand; 3' TTTTT single-stranded linker to array surface; dsDNA, one strand shown", "outline": "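Transcription factors were each fused at the N-terminus to a polyhistidine tag plus DsRed and expressed in E. coli BL21-CodonPlus before Ni–NTA purification. Binding to a double-stranded custom Agilent array was carried out with 200 nM protein at 25 °C for 1 h in PBS, 2% BSA, salmon testes DNA and 50 µM zinc acetate. The binding signal is per-feature fluorescence intensity, in arbitrary units, on an Axon 4000B scanner.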", "values": [
      {"sequence": "TTAACTAATAATAAAACTAATTGTATAAATGAGAGCTAATCGGAGTCACCTAGTGCAG", "binding signal": "15900 fluorescence intensity (a.u.)"},
      {"sequence": "CGGCGAGATTGGCGACCACCGCCTTTCCCTCCTCCTACACCGGAGTCACCTAGTGCAG", "binding signal": "9090 fluorescence intensity (a.u.)"},
      {"sequence": "ATTATGAAAATTTATTCAATTATAGATTTAATGAAACTATCGGAGTCACCTAGTGCAG", "binding signal": "6020 fluorescence intensity (a.u.)"},
      {"sequence": "TCAAACGGATTGAGAGACTCTATAACTTACTTTCCTCTGACGGAGTCACCTAGTGCAG", "binding signal": "10400 fluorescence intensity (a.u.)"},
      {"sequence": "TTGGTTTTGGATTAATTGGTTCATCATGACCATTACGACACGGAGTCACCTAGTGCAG", "binding signal": "13400 fluorescence intensity (a.u.)"},
      {"sequence": "GTCCTATTTGACGCTTTGATTAGACAACGCTTTGTCAATTCGGAGTCACCTAGTGCAG", "binding signal": "12900 fluorescence intensity (a.u.)"},
      {"sequence": "AAGACGGTAATAGACTGTGCGAGTTGAACATGCAACTCTACGGAGTCACCTAGTGCAG", "binding signal": "7360 fluorescence intensity (a.u.)"},
      {"sequence": "TCCATGATTAGTCATAAAGTGTTACAGTAATCTACATGTGCGGAGTCACCTAGTGCAG", "binding signal": "30400 fluorescence intensity (a.u.)"},
      {"sequence": "TAACTAATTATTAATTGTTTTCCTATCATTTGATTCATTGCGGAGTCACCTAGTGCAG", "binding signal": "53200 fluorescence intensity (a.u.)"},
      {"sequence": "TGCAATTTGAGTGATTTTGATGTAGGACACCACCTTGTGACGGAGTCACCTAGTGCAG", "binding signal": "9870 fluorescence intensity (a.u.)"},
      {"sequence": "ACTACAAATTAATTATATCTCCGTTCTTTTCAGCCTATTCCGGAGTCACCTAGTGCAG", "binding signal": "32200 fluorescence intensity (a.u.)"},
      {"sequence": "CAACAACTTAATTTGTCATAGAGAGAAAGATTGTAGGCAACGGAGTCACCTAGTGCAG", "binding signal": "4500 fluorescence intensity (a.u.)"},
      {"sequence": "TCATATGATTAGGATATATCACATCTCATTATATTATATGCGGAGTCACCTAGTGCAG", "binding signal": "17800 fluorescence intensity (a.u.)"},
      {"sequence": "AGTTGATTTTGTACTCCTAAAATTTACAGTCATTCTTTACCGGAGTCACCTAGTGCAG", "binding signal": "11100 fluorescence intensity (a.u.)"},
      {"sequence": "GATACTCCAATCATCAATGTACAAGTATAAATACTTCGTTCGGAGTCACCTAGTGCAG", "binding signal": "7880 fluorescence intensity (a.u.)"},
      {"sequence": "CTTATTACAAAATATAATTATCATTTATTTTATCATTACACGGAGTCACCTAGTGCAG", "binding signal": "6650 fluorescence intensity (a.u.)"},
      {"sequence": "CTCTGATCAATCTCTCTAGTATCCTCCTGCTCATTTAGCACGGAGTCACCTAGTGCAG", "binding signal": "3760 fluorescence intensity (a.u.)"},
      {"sequence": "CAGTTCCGATTGACAAGTCACGTTGACAATTCAAGTCAGACGGAGTCACCTAGTGCAG", "binding signal": "18200 fluorescence intensity (a.u.)"},
      {"sequence": "CAAGCTAATCACTCATGCTAAAAGTTTTGTGTCCATTCTTCGGAGTCACCTAGTGCAG", "binding signal": "3710 fluorescence intensity (a.u.)"},
      {"sequence": "TAATAATTATAATTAATTACCGGAGTTACTTATTCTAAACCGGAGTCACCTAGTGCAG", "binding signal": "60400 fluorescence intensity (a.u.)"},
      {"sequence": "CTCCCAATCACTTTCCCCAAACACAGACCCTCTACAGTCCCGGAGTCACCTAGTGCAG", "binding signal": "14600 fluorescence intensity (a.u.)"},
      {"sequence": "ATTGGAATTTATTAATTAAAATTAGATTTTCTTTTCAAGACGGAGTCACCTAGTGCAG", "binding signal": "20800 fluorescence intensity (a.u.)"},
      {"sequence": "GTGTTTGATTTGCCTCTCTTAAGAACCACTGTGAAAACATCGGAGTCACCTAGTGCAG", "binding signal": "6450 fluorescence intensity (a.u.)"},
      {"sequence": "ATAGATAGCCAAATCACAATCATCCAATGCCAAGCAAGGACGGAGTCACCTAGTGCAG", "binding signal": "6920 fluorescence intensity (a.u.)"},
      {"sequence": "ATGTTTCGCGCTGGTAATTTACTGTATATATAATAATAATCGGAGTCACCTAGTGCAG", "binding signal": "4000 fluorescence intensity (a.u.)"},
      {"sequence": "TCGCAATCAGCCAATCAATTCATGCCCATTATTACATATGCGGAGTCACCTAGTGCAG", "binding signal": "34100 fluorescence intensity (a.u.)"},
      {"sequence": "ATGCGTCGTCTCTGGCGAATTAATTGGCCAGGTCACCAGGCGGAGTCACCTAGTGCAG", "binding signal": "4220 fluorescence intensity (a.u.)"},
      {"sequence": "ATGTGCCAATATTATTTCAATTAATGGGATCGTTCAGGTCCGGAGTCACCTAGTGCAG", "binding signal": "5370 fluorescence intensity (a.u.)"},
      {"sequence": "CATGACAGCGTGCTTGGATCAACCGCTTTTGTCTTCTCCACGGAGTCACCTAGTGCAG", "binding signal": "3780 fluorescence intensity (a.u.)"},
      {"sequence": "ATGATAGATTAAATCAAATTATCATGTTATGGGTATAGCCCGGAGTCACCTAGTGCAG", "binding signal": "53200 fluorescence intensity (a.u.)"},
      {"sequence": "ACTAATTTTGTCTATTGGATAGCCAGAAAACATGCATCAGCGGAGTCACCTAGTGCAG", "binding signal": "21000 fluorescence intensity (a.u.)"},
      {"sequence": "ATTCAATTATATCCAACTATTACCAAACATCTTATTAGTTCGGAGTCACCTAGTGCAG", "binding signal": "14800 fluorescence intensity (a.u.)"},
      {"sequence": "AGCAAATCAAAGAATTCCACATCACACGAAAGACGTTACTCGGAGTCACCTAGTGCAG", "binding signal": "3670 fluorescence intensity (a.u.)"},
      {"sequence": "AGCCTAATTAGTCCATGATTAGCTATAAGTGCTACATTAACGGAGTCACCTAGTGCAG", "binding signal": "47700 fluorescence intensity (a.u.)"},
      {"sequence": "GTTATAATTTATTTTCCGCCTTTAACTAGTACAATCTTTTCGGAGTCACCTAGTGCAG", "binding signal": "13000 fluorescence intensity (a.u.)"},
      {"sequence": "TTTGATTTTCGTCAGCAAGCTATTCGACAAGAGCTCCTTTCGGAGTCACCTAGTGCAG", "binding signal": "6920 fluorescence intensity (a.u.)"},
      {"sequence": "ACAAATTAAACTGAAAATAGTTATCGCACATTCGCATATACGGAGTCACCTAGTGCAG", "binding signal": "12600 fluorescence intensity (a.u.)"},
      {"sequence": "TAAATTGACATGATTAATTGAAACCACGCCATTCAGCAATCGGAGTCACCTAGTGCAG", "binding signal": "65500 fluorescence intensity (a.u.)"},
      {"sequence": "TAGAAGTCAATCATCAGGCATCAGCGAGGTAGCTGCATATCGGAGTCACCTAGTGCAG", "binding signal": "7940 fluorescence intensity (a.u.)"},
      {"sequence": "GGCTGACAGGCACTATATGTGAGCATCCAAGGAACTTGCGCGGAGTCACCTAGTGCAG", "binding signal": "10400 fluorescence intensity (a.u.)"},
      {"sequence": "CGGTCATCAATCTCATCAGCTACATCCCAAAGGGGAATCACGGAGTCACCTAGTGCAG", "binding signal": "5580 fluorescence intensity (a.u.)"},
      {"sequence": "AAGGAGTGACAATTAAGTGAGTGGATGCGACAATGCTGTACGGAGTCACCTAGTGCAG", "binding signal": "4530 fluorescence intensity (a.u.)"}
    ]}
  ]
}
